The whole screen tested about 39,000 compounds, of which about 220 (0.56%) showed activity. The list shows a part of the results.
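Also: static incubation at 37 °C against the wild-type strain, values averaged over two biological replicates.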

This assay has as its system Escherichia coli K-12 BW25113. Description: relative growth (OD600 normalised to plate interquartile mean) (fraction); higher = less growth inhibition, active = 0.2 or less. The note with it: 50 µM; LB; incubation time: overnight (16-24 h).
As to `C[C@@H](O)[C@@H](O)[C@@H](O)C/C=N/NC(=O)CCCCC(=O)NO`, the relative growth was inactive: 0.96.

As to `C[C@@H]1CCCCO[C@@H](CN(C)Cc2ccccc2)[C@@H](C)CN([C@@H](C)CO)C(=O)c2cc(NC(=O)Cc3ccccc3)ccc2O1`, the relative growth is inactive: 1.01.

For `C[C@H]1NC(=O)N[C@@H]1CCCCC(=O)O`, the relative growth is inactive: 0.914.

Regarding `CCOC(=O)CCc1n[nH]c(=O)[nH]c1=O`, the relative growth is inactive: 1.01.

For the compound `C[C@@H]1CN([C@@H](C)CO)C(=O)c2cc(NC(=O)NC3CCCCC3)ccc2O[C@@H](C)CCCCO[C@H]1CN(C)S(=O)(=O)c1ccccc1`, the relative growth is inactive: 1.03.

With `C=CC[C@@H](CC(=O)N[C@H](CO)Cc1ccccc1)C(=O)NCCOC(=O)[C@@H](CC=C)CC(=O)OC(C)(C)C`, the relative growth was inactive: 0.978.

With `C[C@@H]1CN([C@@H](C)CO)S(=O)(=O)c2ccc(C#CC(C)(C)O)cc2O[C@H]1CN(C)Cc1ccncc1`, the relative growth is inactive: 0.997.

On to `CO[C@H]1CN(C)C(=O)c2ccc(NC(=O)Nc3ccc(Cl)cc3)cc2OC[C@@H](C)N(C(=O)Nc2c(C)noc2C)C[C@@H]1C`, for which the relative growth is inactive: 0.968.

With `CC(=O)c1ccc2c(c1)N(CCCN(C)C)c1ccccc1S2.O=C(O)C=CC(=O)O`, the relative growth was inactive: 0.983.

With `Cc1noc(C)c1NC(=O)N(C)C[C@@H]1OCCCC[C@@H](C)Oc2ccc(NS(=O)(=O)c3ccc(Cl)cc3)cc2C(=O)N([C@H](C)CO)C[C@H]1C`, the relative growth is inactive: 1.03.

As to `O=C(C[C@@H]1CC[C@H]2NC[C@H](O)COC[C@@H]2O1)NCCN1CCCC1`, the relative growth is inactive: 1.01.

As to `C=CC1CN2CCC1CC2C(O)c1ccnc2ccc(OC)cc12.Cl` (stereo unspecified), the relative growth is inactive: 1.07.

On to `CC(=O)N1[C@@H]2c3ccc(-c4ccccc4)c(=O)n3C[C@H]1[C@H](CO)[C@H]2C(=O)NCCCN1CCOCC1`, for which the relative growth was inactive: 0.967.

As for `C[C@@H]1CN([C@H](C)CO)C(=O)c2cccc(NS(=O)(=O)c3cn(C)cn3)c2O[C@@H]1CN(C)C(=O)Nc1ccc2c(c1)OCO2`, the relative growth was inactive: 0.993.

As for `COc1ccc(NC(=O)N(C)C[C@@H]2OCCCC[C@@H](C)Oc3ccc(NC(=O)Nc4ccccc4)cc3C(=O)N([C@H](C)CO)C[C@@H]2C)cc1`, the relative growth was inactive: 1.01.

As to `COc1cc(/C=C(\C#N)C(=O)Nc2nnc(C(F)(F)F)s2)ccc1OCc1ccc(C(F)(F)F)cc1C(F)(F)F`, the relative growth is inactive: 0.948.

As to `CC(C)[C@@H](N)c1nc2c([nH]1)CCCC2`, the relative growth was inactive: 1.02.

Regarding `CC(C)NC(=O)Nc1cccc2c1O[C@H](CN(C)C(=O)NC1CCCCC1)[C@H](C)CN([C@H](C)CO)C2=O`, the relative growth was inactive: 0.996.

Consider `Nc1nnc(SCC(=O)N2CCOCC2)[nH]1`, for which the relative growth was inactive: 0.975.

For `COc1ccc(NC(=O)N(C)C[C@H]2Oc3c(NS(C)(=O)=O)cccc3C(=O)N([C@H](C)CO)C[C@H]2C)cc1`, the relative growth is inactive: 0.985.

Regarding `C[C@@H]1CCCCO[C@H](CN(C)C(=O)NC2CCCCC2)[C@H](C)CN([C@@H](C)CO)C(=O)c2cc(NC(=O)Nc3cccc4ccccc34)ccc2O1`, the relative growth is inactive: 0.996.

Regarding `C[C@H]1CCCN(C(=O)CCNS(=O)(=O)c2ccc3c(c2)c(=O)n(C)c(=O)n3C)C1`, the relative growth was inactive: 1.01.

As to `COc1ccc(NC(=O)N(C)C[C@@H]2Oc3ncc(C#C[C@@H](C)O)cc3C(=O)N([C@H](C)CO)C[C@H]2C)cc1`, the relative growth is inactive: 0.986.

In the case of `O=C(N[C@@H]1CC[C@H](CC(=O)N2CCOCC2)O[C@H]1CO)c1ccccn1`, the relative growth is inactive: 1.02.

Turning to `C[C@@H]1CN([C@H](C)CO)C(=O)c2cc(NC(=O)Nc3ccccc3)ccc2O[C@@H](C)CCCCO[C@@H]1CN(C)C(=O)c1ccccc1`, the relative growth was inactive: 0.998.

For `C[C@H](CO)N1C[C@H](C)[C@H](CN(C)Cc2ccc3c(c2)OCO3)Oc2c(NC(=O)Nc3cccc4ccccc34)cccc2C1=O`, the relative growth was inactive: 1.01.

As to `C[C@@H]1CCCCO[C@H](CN(C)C(=O)Nc2cccc3ccccc23)[C@@H](C)CN([C@@H](C)CO)C(=O)c2cc(NC(=O)Cc3ccccc3)ccc2O1`, the relative growth is inactive: 1.

For `C[C@@H]1CN([C@@H](C)CO)C(=O)c2cc(NC(=O)Nc3ccc(F)cc3)ccc2O[C@@H]1CN(C)C(=O)Nc1cccc2ccccc12`, the relative growth is inactive: 1.03.

For `CCOC(=O)c1ccc(OCCN2C[C@H](O)[C@@H](O)[C@H](O)[C@H]2CO)cc1`, the relative growth was inactive: 0.979.

For the compound `O=C(Nc1cc(C(F)(F)F)cc(C(F)(F)F)c1)Nc1c(Br)cc(Br)cc1-c1nn[nH]n1`, the relative growth was inactive: 0.921.

For `COc1ccc(S(=O)(=O)N(C)C[C@H]2Oc3ccc(N(C)C)cc3CC(=O)N([C@@H](C)CO)C[C@@H]2C)cc1`, the relative growth was inactive: 1.02.

`C[C@@H]1CN([C@H](C)CO)C(=O)Cc2cc(NC(=O)Nc3ccc4c(c3)OCO4)ccc2O[C@@H]1CN(C)Cc1ccc(C(=O)Nc2ccccc2N)cc1`: the relative growth was inactive: 0.98.

On to `CCOc1cc(C(C)(C)C)ccc1C1=N[C@@](C)(c2ccc(Cl)cc2)[C@@](C)(c2ccc(Cl)cc2)N1C(=O)N1CCN(CCCS(C)(=O)=O)CC1`, for which the relative growth was inactive: 1.03.

Take `Cc1ccc(S(=O)(=O)Nc2ccc3c(c2)C(=O)N([C@@H](C)CO)C[C@H](C)[C@H](CN(C)Cc2ccc(C(=O)O)cc2)OCCCC[C@H](C)O3)cc1`: the relative growth was inactive: 1.

For `Cc1cc(C(=O)O)n[nH]1`, the relative growth was inactive: 1.02.

With `C[C@H](CO)N1C[C@H](C)[C@@H](CN(C)S(=O)(=O)c2ccc(F)cc2)Oc2ccc(N(C)C)cc2CC1=O`, the relative growth was inactive: 0.999.

For the compound `Cl.N=C(N)NC(=O)c1nc(Cl)c(N)nc1N`, the relative growth was inactive: 1.02.

Regarding `Cc1cccc(S(=O)(=O)N2C[C@@H](O)COC[C@H]3O[C@H](CC(=O)NCc4ccc5c(c4)OCO5)CC[C@@H]32)c1`, the relative growth was inactive: 1.02.

On to `C[C@H](CO)N1C[C@H](C)[C@@H](CN(C)C(=O)C2CCCCC2)OCCCC[C@H](C)Oc2ccc(NC(=O)C3CCCCC3)cc2C1=O`, for which the relative growth is inactive: 1.01.

Consider `CNC(=O)C[C@@H]1CC[C@@H]2[C@H](COC[C@@H](O)CN2C(=O)Nc2cccc(OC)c2)O1`, for which the relative growth is inactive: 1.04.

For the compound `C[C@@H]1CN([C@@H](C)CO)C(=O)c2cc(NS(=O)(=O)c3cn(C)cn3)ccc2O[C@@H]1CN(C)C(=O)NC1CCCCC1`, the relative growth was inactive: 0.975.

(Values after the supplement of paper PMC9446081.)
